Out of some 7,900 compounds screened, about 400 (5.1%) showed an effect of 50% or more. The list shows a part of the results.

Chain of Parkinson's disease protein 7 (PARK7/DJ1) (Q99497 whole entry, looked up, the tested form may be a part): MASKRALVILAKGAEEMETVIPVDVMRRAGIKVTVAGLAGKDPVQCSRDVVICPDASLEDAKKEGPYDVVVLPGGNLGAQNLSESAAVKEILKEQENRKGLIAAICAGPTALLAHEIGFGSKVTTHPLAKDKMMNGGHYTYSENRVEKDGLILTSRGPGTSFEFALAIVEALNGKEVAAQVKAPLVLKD

The target in this assay is Parkinson's disease protein 7 (PARK7/DJ1) (human, UniProt Q99497). As to the kind of experiment: primary screen, percent inhibition; read as competition with a fluorescent probe by fluorescence polarization; higher = more effect of the substance. The following applies: 100 µM. The method in brief:
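Fluorescence-polarization probe displacement (JYQ-107, 20 nM final, 2 h) after 2 h preincubation of PARK7 (0.2 μM final) with each fragment at 100 μM final. Read-out ex/em 480/520 nm; remaining activity derived from FP signal loss relative to reference controls.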
For the compound `Cc1noc(C)c1Cn1c(-c2ccccc2)noc1=O`, the Inhibition % amounted to 14.3%.
Under `O=C(Oc1cccc(Cl)c1)N1CCOCC1` stands 4.2%.
Take `CCOc1ccc(NC(=O)CCl)c([N+](=O)[O-])c1`: the Inhibition % came out at 14.4%.
Consider `COC(=O)c1cc(B2OC(C)(C)C(C)(C)O2)c(C)cn1`, for which the Inhibition % stood at 4.59%.
Under `CN1C(=O)SC(CC(=O)O)C1=O` (stereo not drawn) stands 11.7%; under `C=CC(=O)N1CCOc2ccccc2C1`, 7.25%.
In the case of `CC1CN(C)CCN1C(=O)C=Cc1nc2ccccc2o1` (stereo not drawn), the Inhibition % is recorded as 27.3%.
`N#Cc1ncn(Cc2ccccc2C(F)(F)F)n1`: the Inhibition % came to 0.629%.
Turning to `Cc1cc(C)c(C(=O)O)c(S)n1`, the Inhibition % is 12.8%.
In the case of `O=C(CCl)NC1CCS(=O)(=O)C1` (stereo not drawn), the Inhibition % is 6.48%.
As for `C=CC(=O)N1CCc2nc(-c3ccccc3)sc2C1`, the Inhibition % was determined as 16.7%.
In the case of `O=C1OCCC1Sc1nnc2sc3ccccc3n12` (stereo not drawn), the Inhibition % worked out at 0.305%.
In the case of `CC1(c2ccc(Cl)cc2)NC(=O)N(CCS(=O)(=O)F)C1=O` (stereo not drawn), the Inhibition % was 31.9%.
Take `C=CC(=O)N1CCN(C(=O)Cc2cccc(Cl)c2)CC1`: the Inhibition % came out at 8.81%.
On to `O=C1NC(=O)C(CCS(=O)(=O)F)N1` (stereo not drawn), for which the Inhibition % is recorded as 97.6%.
As to `C=CC(=O)NCCc1ccc2c(c1)OCO2`, the Inhibition % came to 6.32%.
Turning to `O=C(CCl)N1CCCC1c1ccsc1` (stereo not drawn), the Inhibition % was 6.97%.
For `N#CC(=Cc1ccco1)C(=O)N1CCc2ccccc21`, the Inhibition % is on record as -27.4%.
For the compound `C=CC(=O)N1CCC(n2c(=O)[nH]c3ccccc32)CC1`, the Inhibition % was found to be 15.7%.
On to `CCc1nc(C#N)cc(NCC2CCSCC2)n1`, for which the Inhibition % amounted to 3.86%.
Consider `N#Cc1cccc(-n2cccn2)n1`, for which the Inhibition % amounted to 16.1%.
`O=C(CCl)Nc1ccc(N2CCCCCC2)cc1`: the Inhibition % was found to be 99.5%.
Turning to `N#CC(=Cc1ccc(C(=O)O)cc1)c1ccccn1`, the Inhibition % came out at 8.94%.
Regarding `O=C1OCCC1Sc1nnc(-c2ccccc2F)[nH]1` (stereo not drawn), the Inhibition % is reported as 9.37%.
`Cl.N#Cc1ncn(CCN)n1`: the Inhibition % is reported as 7.79%.
Consider `CCc1nc(C#N)cc(NC2CSC2)n1`, for which the Inhibition % was -3.02%.
As for `COCCn1c(S)nc2ncccc2c1=O`, the Inhibition % worked out at 6.27%.
Turning to `CC(Cl)c1nc2scc(-c3ccco3)c2c(=O)[nH]1` (stereo not drawn), the Inhibition % is 3.05%.
Consider `CS(=O)(=O)CCN(C#N)c1ccccc1`, for which the Inhibition % is recorded as 5.26%.
Under `CC1(C)OB(c2ccnn2C2CCC2)OC1(C)C` stands 23.7%; under `N#CC(=Cc1cc2cc(F)ccc2o1)C(=O)O`, -2.97%; under `Cc1ccc(S(=O)(=O)n2ccnc2)cc1`, 11.3%.
Take `NC(=O)C1CCN(C(=O)C=Cc2cccnc2)CC1`: the Inhibition % amounted to 6.12%.
Turning to `Clc1cccc(C2CO2)c1` (stereo not drawn), the Inhibition % is given as 14.4%.
`Cc1ccc(NC2C=CS(=O)(=O)C2)cc1` (stereo not drawn): the Inhibition % was 12.7%.
On to `C=CC(=O)N1CC2(CCC2)C1c1ccncc1` (stereo not drawn), for which the Inhibition % came out at 7.42%.
As for `O=C(CCl)Nc1nc(-c2cccs2)cs1`, the figure is 11.6%; as for `C=CC(=O)N1CCCC(c2ccc(F)c(F)c2)C1` (stereo not drawn), 9.29%; as for `Cc1cc(C)nc(S(=O)(=O)F)n1`, 55.9%.
Consider `COc1ccc(C2CC(C)N(C3CCOC3=O)C2)cc1` (stereo not drawn), for which the Inhibition % worked out at 13.6%.
Regarding `Cc1cccc(C(=O)NNC(=O)CCl)c1`, the Inhibition % came out at 1.98%.
Turning to `C=CC(=O)N1CCCc2ccccc21`, the Inhibition % amounted to 9.75%.
As for `C=CC(=O)NCc1ccc(C)s1`, the figure is 1.04%.
For the compound `C=CC(=O)NC1CCN(c2ccn(C)n2)C1` (stereo not drawn), the Inhibition % is on record as 13.8%.
Take `C=CC(=O)N1CCN(C2CCN(Cc3ccccc3)C2)CC1` (stereo not drawn): the Inhibition % is listed as 15.2%.
On to `CC1(C)OB(c2ccc(N)cc2)OC1(C)C`, for which the Inhibition % is 5.89%.
On to `CN(C)Cc1ccc(B2OC(C)(C)C(C)(C)O2)s1`, for which the Inhibition % was found to be 5.59%.
Under `N#Cc1ccc(OC(F)F)cn1` stands 10.9%; under `C=CC(=O)N1CCC(c2nc3ccccc3s2)CC1`, 8.38%; under `CCN1C(=O)SC(CC(=O)O)C1=O` (stereo not drawn), 3.41%.
For the compound `C=CC(=O)N1CCOCC1c1cccc(F)c1` (stereo not drawn), the Inhibition % is recorded as 2.96%.
With `N#Cc1cnc(S)nc1O`, the Inhibition % is reported as 6.34%.
For `C=CC(=O)NCCc1nc2ccc(F)cc2n1C`, the Inhibition % is listed as 3.72%.
For the compound `CC(C)C(NC(=O)CCl)c1ccc2c(c1)OCCO2` (stereo not drawn), the Inhibition % amounted to 5.63%.
Take `Cc1ccc(F)c(N(C#N)CCCN2C(=O)CNC2=O)c1`: the Inhibition % is recorded as -0.594%.
As for `N#CC(=Cc1cccc(O)c1)c1ccccn1`, the Inhibition % is 45.1%.
As for `CCN(CC1COc2ccccc2O1)C(=O)CCl` (stereo not drawn), the figure is 21.2%.
Regarding `O=S(=O)(F)c1coc2ccccc12`, the Inhibition % was 10.5%.
On to `CC(C)C(NC(=O)CCl)c1ccccc1` (stereo not drawn), for which the Inhibition % is 9.18%.
As for `N#Cc1nccn1Cc1cc(F)cc(F)c1`, the figure is 5.08%; as for `C=CC(=O)NCc1ccnc(N2CCN(C)CC2)n1`, 8.25%.
As for `CC1CCCCN1C(=O)Cn1cnc(C#N)n1` (stereo not drawn), the figure is 7.59%; as for `CNC(=O)Oc1cccc(O)c1`, 37.6%; as for `COc1ccc(CCn2cnc(C#N)n2)cc1`, 2.16%.
On to `O=C(NCCO)Oc1ccccc1`, for which the Inhibition % stood at 10.5%.
Regarding `CNC(=O)c1cc(C(=O)CCl)cn1C`, the Inhibition % stood at 5.61%.
Regarding `O=C1OCCC1N1CCN(C(=O)c2cccc(F)c2)CC1` (stereo not drawn), the Inhibition % was found to be 8.98%.
Regarding `O=C(CCl)NCCOc1cccc(Cl)c1`, the Inhibition % stood at 17.8%.
As for `CC(CC#N)Sc1ccccc1NC(=O)CCl` (stereo not drawn), the figure is 10.5%.
For `N#CC1(NS(=O)(=O)c2ccc(S(=O)(=O)F)cc2)CCC1`, the Inhibition % is recorded as 31.4%.
For the compound `C=CC(=O)Nc1ccc2c(c1)CC(=O)N2`, the Inhibition % stood at 12.5%.
On to `CC1(C)OB(c2cccc(O)c2)OC1(C)C`, for which the Inhibition % amounted to 5.19%.
As for `Cn1nc2ccccc2c1C#N`, the Inhibition % was determined as 4.09%.
Under `Cc1nn(C)c2ncc(SC(=O)N(C)C)cc12` stands 3.99%; under `C=CC(=O)NCCc1nc2ccccc2o1`, 3.17%; under `O=C(CCl)Nc1cc(-n2nnnc2C2CC2)ccc1F`, 2.27%.
`CC(Cl)Cc1cc2ccc(O)cc2oc1=O` (stereo not drawn): the Inhibition % is recorded as 12.3%.
As for `O=C(CCl)Nc1ccc(Br)cn1`, the figure is 2.66%; as for `N#CSc1c(Cl)nc2sccn12`, 13.7%.
Take `C=CC(=O)N1CCCC1c1c(C)nn(CC(C)C)c1Cl` (stereo not drawn): the Inhibition % is given as 3.35%.
For the compound `Cc1nc(C2CC2)nc(S)c1C#N`, the Inhibition % is reported as 2.7%.

The values are drawn from article PMC9574860, “Chemical Toolkit for PARK7: Potent, Selective, and High-Throughput” (Journal of Medicinal Chemistry, 2022).
